# IC50 is the fitted dose that halves viability relative to control wells, and lower means more sensitive; fits outside the tested doses are given as limits. For AUC the same curve is integrated over the 256-fold range of doses and scaled to a fraction; it is 1 without any effect and falls as sensitivity rises. For some assays here: An inferred top dose comes from the curve model; the source does not state it. For some assays here: Where an entry number is given, a second screen of the drug exists; the two often differ.
# Assays:
# Assay in all cases: Viability of human cancer cell lines after 72 h of drug (GDSC screen)
# [1] = compound: COc1cc(N2CCC(O)CC2)ccc1Nc1cc(Nc2ccccc2S(=O)(=O)C(C)C)c2cc[nH]c2n1 [MPS-1-IN-1]; conditions: top dose 20 µM; top dose inferred
# Procedure: (§1)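 Human cancer cell lines in 384-well plates, medium with 10% serum, drug for 72 h over a 256-fold dose range (nine 2-fold or five 4-fold steps up to the top dose). Adherent lines were fixed and stained with the nucleic acid dye Syto60, suspension lines read with resazurin; signal relative to control wells, capped at 0 and 100%. One two-parameter sigmoid per drug and line, fitted in a mixed model over all curves with the slope shared within a line.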
# [2] = compound: C[C@]1(c2nc3c(C(N)=O)cccc3[nH]2)CCCN1 [ABT-888]; conditions: top dose 5 µM; top dose inferred
# Procedure: as §1
# [3] = compound: Nc1ccn([C@@H]2O[C@H](CO)[C@@H](O)[C@@H]2O)c(=O)n1 [Cytarabine]; conditions: top dose 2 µM
# Procedure: as §1
# [4] = compound: COc1nc(C)cnc1NS(=O)(=O)c1cccnc1-c1ccc(-c2nnco2)cc1 [Zibotentan]; conditions: top dose 20 µM; top dose inferred
# Procedure: as §1
# [5] = compound: Cc1ccc(F)c(NC(=O)Nc2ccc(-c3cccc4[nH]nc(N)c34)cc2)c1 [ABT-869]; conditions: top dose 1.024 µM; top dose inferred
# Procedure: as §1
# [6] = compound: C/C=C(/C)C(=O)O[C@H]1C(C)=C2[C@H]([C@@H]1OC(=O)CCCCCCC)[C@@](C)(OC(C)=O)C[C@H](OC(=O)CCC)[C@@]1(O)[C@H]2OC(=O)[C@@]1(C)O [Thapsigargin]; conditions: top dose 0.512 µM; top dose inferred
# Procedure: as §1
# [7] = compound: CCn1c(-c2nonc2N)nc2cnc(Oc3cccc(NC(=O)c4ccc(OCCN5CCOCC5)cc4)c3)cc21 [GSK269962A]; conditions: top dose inferred
# Procedure: as §1
# [8] = compound: C=CC(=O)Nc1cc(-n2c(=O)ccc3cnc4ccc(-c5cn[nH]c5)cc4c32)ccc1C [QL-X-138]; conditions: top dose 10.24 µM; top dose inferred
# Procedure: as §1
# [9] = compound: Cc1cnc(-c2cnc(NCCNc3ccc(C#N)cn3)nc2-c2ccc(Cl)cc2Cl)[nH]1 [CHIR-99021]
# Procedure: as §1
# [10] = compound: COc1cc2ncnc(-n3nc(-c4ccccn4)nc3N)c2cc1OC [CP466722]; conditions: top dose 16 µM; top dose inferred
# Procedure: as §1
# [11] = compound: COc1cc(O)c2c(c1)/C=C/C[C@H](O)[C@H](O)C(=O)/C=C\C[C@H](C)OC2=O [(5Z)-7-Oxozeaenol]; conditions: top dose 10 µM; top dose inferred
# Procedure: as §1
# [12] = compound: O=c1cc(-c2cccc3c2Sc2ccccc2S3)oc(N2CCOCC2)c1 [KU-55933]; conditions: top dose 10 µM
# Procedure: as §1
# [13] = top dose 5 µM, screen: GDSC drug entry 1192
# [14] = top dose 2.56 µM, screen: GDSC drug entry 154
# [15] = top dose 10 µM, screen: GDSC drug entry 1241, top dose inferred
# [16] = top dose 2.5 µM, screen: GDSC drug entry 127
Cell Line,AUC [1],IC50 [1],AUC [2],IC50 [2],AUC [3],IC50 [3],AUC [4],IC50 [4],AUC [5],IC50 [5],AUC [6],IC50 [6],"AUC [7, 13]","IC50 [7, 13]",AUC [8],IC50 [8],"AUC [9, 14]","IC50 [9, 14]","AUC [9, 15]","IC50 [9, 15]",AUC [10],IC50 [10],AUC [11],IC50 [11],"AUC [7, 16]","IC50 [7, 16]",AUC [12],IC50 [12]
"JHH-6 (liver, adherent)",0.964,> 20 µM,0.986,> 5 µM,0.767,0.755 µM,0.986,> 20 µM,0.984,> 1.02 µM,0.151,0.0026 µM,0.83,3.21 µM,0.929,> 10.2 µM,0.98,> 2.56 µM,0.874,> 10 µM,0.953,> 16 µM,0.741,3.1 µM,–,–,–,–
"KYSE-70 (oesophagus, adherent)",0.985,> 20 µM,–,–,0.824,1.34 µM,0.986,> 20 µM,0.982,> 1.02 µM,0.127,< 0.002 µM,0.597,0.593 µM,0.906,> 10.2 µM,0.986,> 2.56 µM,0.983,> 10 µM,0.924,> 16 µM,0.81,5.86 µM,–,–,–,–
"M14 (melanoma, adherent)",0.837,14.4 µM,0.987,> 5 µM,0.703,0.482 µM,0.987,> 20 µM,0.987,> 1.02 µM,0.299,0.00841 µM,0.979,> 5 µM,0.986,> 10.2 µM,0.923,> 2.56 µM,0.952,> 10 µM,0.986,> 16 µM,0.121,< 0.0391 µM,–,–,–,–
"TK (B-cell lymphoma, suspension)",0.812,9.54 µM,0.99,> 5 µM,–,–,0.989,> 20 µM,0.984,> 1.02 µM,0.382,0.0156 µM,0.952,> 5 µM,0.569,0.968 µM,0.99,> 2.56 µM,0.981,> 10 µM,0.724,4.04 µM,0.751,3.04 µM,0.926,> 2.5 µM,0.99,> 10 µM
"TMK-1 (stomach, adherent)",0.931,> 20 µM,0.986,> 5 µM,–,–,0.985,> 20 µM,0.981,> 1.02 µM,0.201,0.00389 µM,0.913,> 5 µM,0.91,> 10.2 µM,0.92,> 2.56 µM,0.851,8.37 µM,0.95,> 16 µM,0.69,2.2 µM,–,–,0.925,> 10 µM
"TOV-21G (ovary, adherent)",0.985,> 20 µM,0.94,> 5 µM,–,–,0.981,> 20 µM,0.978,> 1.02 µM,0.894,> 0.512 µM,0.851,4.35 µM,0.983,> 10.2 µM,0.982,> 2.56 µM,0.9,> 10 µM,0.782,7.29 µM,0.577,1.03 µM,–,–,0.961,> 10 µM
"TT2609-C02 (thyroid, adherent)",0.96,> 20 µM,0.98,> 5 µM,–,–,0.98,> 20 µM,0.978,> 1.02 µM,0.079,< 0.002 µM,0.929,> 5 µM,0.762,3.91 µM,0.944,> 2.56 µM,0.948,> 10 µM,0.979,> 16 µM,0.838,7.44 µM,–,–,0.951,> 10 µM
"TT (thyroid, adherent)",0.928,> 20 µM,0.97,> 5 µM,–,–,0.983,> 20 µM,0.981,> 1.02 µM,0.802,0.378 µM,0.948,> 5 µM,0.974,> 10.2 µM,0.982,> 2.56 µM,0.974,> 10 µM,0.965,> 16 µM,0.901,> 10 µM,–,–,0.973,> 10 µM
"UMC-11 (lung carcinoid, adherent)",0.899,> 20 µM,0.991,> 5 µM,0.984,> 2 µM,0.991,> 20 µM,0.99,> 1.02 µM,0.325,0.0111 µM,0.401,0.172 µM,0.684,1.96 µM,–,–,–,–,0.787,6.18 µM,0.945,> 10 µM,–,–,–,–
"VMRC-RCW (kidney, adherent)",0.983,> 20 µM,0.984,> 5 µM,0.868,1.61 µM,0.989,> 20 µM,0.989,> 1.02 µM,0.265,0.00726 µM,–,–,0.934,> 10.2 µM,0.934,> 2.56 µM,–,–,0.892,> 16 µM,–,–,–,–,–,–
"YKG-1 (glioma, adherent)",0.918,> 20 µM,0.984,> 5 µM,–,–,0.977,> 20 µM,0.977,> 1.02 µM,0.285,0.00778 µM,0.774,1.99 µM,0.556,0.912 µM,0.986,> 2.56 µM,0.973,> 10 µM,0.839,11.2 µM,0.651,1.65 µM,–,–,0.939,> 10 µM

# Source: the supplement of paper PMC4967469
